The text below walks through data of patent publication US20110008375A1, “Uses of Myostatin Antagonists” (AMGEN INC., priority 2005, published 2011).

The target of the assay is T1, myostatin (Homo sapiens, UniProt O14793).
T1 construct: To produce mature myostatin, the pooled promyostatin was enzymatically cleaved between the propeptide and mature myostatin C terminal; made in house; host or cells: E. coli K-12 strain 2596 (ATCC # 202174)
T1 sequence (O14793 267-375): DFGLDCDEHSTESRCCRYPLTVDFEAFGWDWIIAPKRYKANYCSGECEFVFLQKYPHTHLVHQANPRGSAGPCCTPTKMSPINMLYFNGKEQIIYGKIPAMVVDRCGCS
Description: C2C12 pMARE-luc cell based myostatin activity assay. To be noted: affinity matured peptibodies; a range of values is given. From the text: A myostatin-responsive reporter cell line was generated by transfection of C2C12 myoblast cells (ATCC No: CRL-1772) with a pMARE-luc construct. The pMARE-luc construct was made by cloning twelve repeats of the CAGA sequence, representing the myostatin/activin response elements (Dennler et al. EMBO 17: 3091-3100 (1998)) into a pLuc-MCS reporter vector (Stratagene cat #219087) upstream of the TATA box. The myoblast C2C12 cells naturally express myostatin/activin receptors on its cell surface. When myostatin binds the cell receptors, the Smad pathway is activated, and phosphorylated Smad binds to the response element (Macias-Silva et al. Cell 87:1215 (1996)), resulting in the expression of the lucerase gene. Luciferase activity is then measured using a commercial luciferase reporter assay kit (cat #E4550, Promega, Madison, Wis.) according to manufacturer's protocol. A stable line of C2C12 cells that had been transfected with pMARE-luc (C2C12/pMARE clone #44) was used to measure myostatin activity according to the following procedure.
Equal numbers of the reporter cells (C2C12/pMARE clone #44) were plated into 96 well cultures. A first round screening using two dilutions of peptibodies was performed with the myostatin concentration fixed at 4 nM. […] Myostatin activity was measured by determining the luciferase activity in the treated cultures. […]

As a reminder, the IC50 is the point on the concentration scale where inhibition reaches its midpoint. “mTN8Con6-3 ([left out - human IgG1 Fc]GGGGGAQWTGWYQCYGGHLWCYDLRRKLE)” came in with an IC50 of 86.8 nM.
The value for “mTN8Con6-5 ([left out - human IgG1 Fc]GGGGGAQESRWYPCYEGHLWCFDLTETLE)” was 2380 nM.
